The text below walks through data of article PMC4081100.

Only a part is listed here, and it is no random draw. For part of these data: At the low end of the ranking the order means little. Some of the results follow. For part of these data: The source does not settle which construct or isoform was used.

Holding throughout (test): universal protein binding microarray (PBM)
What all share (details): transcription factors of Arabidopsis thaliana; high values mean tight binding; most listed sequences are background and not binding sites; double strand, one strand shown

The target of experiment [1] is GST-NTL6(1-168) (UniProt Q9SCK6).
Experiment [2] deals with T1, GST-ANAC019 NAC domain (UniProt Q9C932).
T1 sequence: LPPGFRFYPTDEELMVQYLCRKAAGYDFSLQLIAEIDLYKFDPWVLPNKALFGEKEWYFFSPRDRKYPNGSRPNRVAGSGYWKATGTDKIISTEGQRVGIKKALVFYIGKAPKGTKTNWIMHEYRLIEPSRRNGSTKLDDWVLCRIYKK

Experiment [3] has as its target T2, GST-ANAC055(1-171) (UniProt Q9LDY8).
T2 sequence: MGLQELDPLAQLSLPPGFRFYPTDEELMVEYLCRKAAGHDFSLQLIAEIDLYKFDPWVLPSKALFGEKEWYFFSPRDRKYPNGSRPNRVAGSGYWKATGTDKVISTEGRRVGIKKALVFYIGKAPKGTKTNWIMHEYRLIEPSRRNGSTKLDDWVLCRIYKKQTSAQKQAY

Experiment [4] deals with T3, GST-ANAC092(1-285) full length (UniProt Q9FKA0).
T3 sequence: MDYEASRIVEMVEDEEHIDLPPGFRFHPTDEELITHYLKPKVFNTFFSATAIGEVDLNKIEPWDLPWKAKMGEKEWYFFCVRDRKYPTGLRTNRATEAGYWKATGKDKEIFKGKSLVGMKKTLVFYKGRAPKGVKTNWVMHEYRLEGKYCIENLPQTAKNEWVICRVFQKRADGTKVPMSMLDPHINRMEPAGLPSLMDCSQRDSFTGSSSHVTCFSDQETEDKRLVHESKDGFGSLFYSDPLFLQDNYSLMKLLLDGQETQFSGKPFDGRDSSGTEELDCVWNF

The target in experiment [5] is T4, GST-NAP(1-166) (UniProt O49255).
T4 sequence: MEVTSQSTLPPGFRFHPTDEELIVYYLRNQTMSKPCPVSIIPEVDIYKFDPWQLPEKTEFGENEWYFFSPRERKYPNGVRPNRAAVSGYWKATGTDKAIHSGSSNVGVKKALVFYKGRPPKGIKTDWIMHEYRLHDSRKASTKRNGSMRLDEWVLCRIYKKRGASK

Experiment [6] deals with T5, GST-NST2(1-184) (UniProt Q9M274).
T5 sequence: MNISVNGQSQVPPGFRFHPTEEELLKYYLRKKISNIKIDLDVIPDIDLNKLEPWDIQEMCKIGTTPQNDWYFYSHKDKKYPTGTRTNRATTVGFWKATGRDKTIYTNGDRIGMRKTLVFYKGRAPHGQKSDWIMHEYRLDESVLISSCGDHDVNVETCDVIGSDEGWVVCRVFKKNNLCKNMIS

Experiment [7] addresses T6, GST-NTL8 NAC domain (UniProt Q9XIN7).
T6 sequence: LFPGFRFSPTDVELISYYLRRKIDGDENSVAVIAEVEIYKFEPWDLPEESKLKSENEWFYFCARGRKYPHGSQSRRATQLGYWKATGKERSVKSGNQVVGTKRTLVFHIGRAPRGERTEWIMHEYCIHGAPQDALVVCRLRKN

The target of experiment [8] is T7, GST-SND1(1-203) (UniProt Q9LPI7).
T7 sequence: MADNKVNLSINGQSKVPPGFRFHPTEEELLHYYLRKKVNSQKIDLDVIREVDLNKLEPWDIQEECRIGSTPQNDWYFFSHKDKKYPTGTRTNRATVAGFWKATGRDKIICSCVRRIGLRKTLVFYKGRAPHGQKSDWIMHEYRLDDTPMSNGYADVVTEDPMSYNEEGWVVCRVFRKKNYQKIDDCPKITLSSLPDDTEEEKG

For experiment [9], the target named is T8, GST-VND7 NAC domain (UniProt Q9C8W9).
T8 sequence: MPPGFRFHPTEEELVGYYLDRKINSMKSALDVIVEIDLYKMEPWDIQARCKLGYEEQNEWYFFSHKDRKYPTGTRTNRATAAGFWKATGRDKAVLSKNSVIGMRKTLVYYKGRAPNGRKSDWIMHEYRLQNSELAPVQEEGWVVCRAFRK

Experiment [10] addresses T9, GST-VOZ2 (Arabidopsis thaliana) (UniProt Q9SLB9).
T9 sequence: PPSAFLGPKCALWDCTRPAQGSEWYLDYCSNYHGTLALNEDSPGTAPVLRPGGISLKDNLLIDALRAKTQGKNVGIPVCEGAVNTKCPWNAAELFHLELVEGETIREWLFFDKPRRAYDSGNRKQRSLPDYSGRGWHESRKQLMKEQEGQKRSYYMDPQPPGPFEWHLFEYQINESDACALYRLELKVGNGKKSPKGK

For experiment [11], the target named is GST-WRKY1(266-371) (UniProt Q9SI37).
The target of experiment [12] is T10, GST-ATAF1 NAC domain (UniProt Q39013).
T10 sequence: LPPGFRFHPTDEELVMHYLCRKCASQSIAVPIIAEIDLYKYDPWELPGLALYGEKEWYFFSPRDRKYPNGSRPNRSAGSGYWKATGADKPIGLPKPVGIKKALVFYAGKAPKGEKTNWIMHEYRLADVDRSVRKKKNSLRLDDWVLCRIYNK

Experiment [13] addresses T11, GST-ANAC092(1-176) (UniProt Q9FKA0).
T11 sequence: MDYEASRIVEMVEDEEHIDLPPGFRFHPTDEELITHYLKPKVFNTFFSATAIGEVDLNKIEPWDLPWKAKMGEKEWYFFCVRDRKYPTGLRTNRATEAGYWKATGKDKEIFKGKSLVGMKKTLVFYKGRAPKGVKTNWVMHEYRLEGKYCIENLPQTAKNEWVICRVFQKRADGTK

CTTGACTC: the binding signal was -0.0987 E-score in experiment [1]; 0.0423 E-score in experiment [2]; -0.00513 E-score in experiment [3]; 0.0114 E-score in [4]; -0.0921 E-score in experiment [5]; -0.00185 E-score in [6]. The binding signal in experiment [7] was 0.0122 E-score; in [8], -0.0166 E-score; in experiment [9] it was 0.00536 E-score; in [10] it was -0.108 E-score; in experiment [11], 0.466 E-score.
With GACGTGTA, the binding signal is -0.0785 E-score in experiment [1]; 0.291 E-score in experiment [12]; 0.437 E-score in experiment [4]; -0.151 E-score in [7]; 0.229 E-score in [8]; 0.338 E-score in [9]. In addition, the figures for the binding signal in [10] and in experiment [11] were 0.0963 E-score and -0.0115 E-score, respectively.
For the sequence GTAACGTA, the binding signal in experiment [1] was -0.013 E-score; in experiment [4], 0.467 E-score; in experiment [5] it was 0.315 E-score; in experiment [7], 0.13 E-score; in experiment [8] it was 0.489 E-score; in experiment [9], 0.402 E-score. Further, the binding signal in experiment [10] is 0.182 E-score; in experiment [11], -0.0479 E-score.
GTATTGAC: the binding signal in [1] was -0.00534 E-score; in [2] it was -0.0278 E-score; in [12] it was 0.0363 E-score; in experiment [6], 0.0313 E-score; in [7], -0.0495 E-score; in [8] it was -0.0149 E-score. The binding signal turned out to be 0.0877 E-score in [9], 0.0657 E-score in experiment [10] and 0.455 E-score in [11].
Regarding GTTGAGTA, the binding signal in experiment [1] was 0.152 E-score; in [12], 0.139 E-score; in experiment [5], -0.0297 E-score; in [7], -0.0774 E-score; in experiment [8], 0.419 E-score; in experiment [9], 0.108 E-score. The binding signal in [10] is 0.171 E-score; in experiment [11], -0.0405 E-score.
Regarding TTACGCAA, the binding signal was determined as 0.484 E-score in experiment [13]; 0.18 E-score in experiment [1]; 0.18 E-score in [7]; 0.495 E-score in experiment [8]; 0.468 E-score in experiment [9]; 0.276 E-score in experiment [10]. For the same sequence, the binding signal in experiment [11] was found to be 0.0317 E-score.
Regarding TGGCGTAA, the binding signal was 0.44 E-score in experiment [13]; -0.0163 E-score in [1]; 0.0386 E-score in [7]; 0.482 E-score in experiment [8]; 0.246 E-score in experiment [9]; 0.108 E-score in experiment [10]. Moreover, in [11], the binding signal is -0.171 E-score.
For the sequence AAGCAATC, the binding signal was 0.324 E-score in [1]; -0.0264 E-score in experiment [5]; 0.466 E-score in experiment [8]; 0.289 E-score in [9]; -0.0691 E-score in experiment [10]; -0.103 E-score in [11].
AGTTACGC: the binding signal is -0.00341 E-score in experiment [1]; 0.0766 E-score in experiment [3]; -0.0167 E-score in [7]; 0.412 E-score in [8]; 0.0942 E-score in experiment [9]; 0.095 E-score in experiment [10]. In experiment [11], the binding signal was -0.125 E-score.
As for AAAAAGTC, the binding signal was 0.015 E-score in experiment [13]; -0.0367 E-score in experiment [1]; 0.0791 E-score in [2]; 0.037 E-score in [4]; -0.00948 E-score in experiment [5]; 0.0306 E-score in [8]. Moreover, the binding signal in [9] came to 0.0465 E-score; in [10], 0.0946 E-score; in [11], 0.426 E-score.
With CGTACGCA, the binding signal in experiment [1] stood at 0.0427 E-score; in experiment [3] it was 0.328 E-score; in [8], 0.32 E-score; in experiment [9], 0.341 E-score; in experiment [10] it was 0.0744 E-score; in [11], 0.0213 E-score.
In the case of TTACGAAA, the binding signal in experiment [13] came out at 0.396 E-score; in experiment [2] it was 0.248 E-score; in experiment [8], 0.434 E-score; in experiment [9] it was 0.233 E-score; in [10] it was 0.101 E-score; in experiment [11], 0.0327 E-score.
As to CACGCATA, the binding signal in experiment [13] is 0.397 E-score; in [1], -0.0977 E-score; in experiment [2], 0.0473 E-score; in [12] it was 0.0454 E-score; in experiment [5], 0.147 E-score; in [7], -0.101 E-score. In addition, the binding signal in experiment [8] is 0.18 E-score; in experiment [9], -0.0207 E-score; in experiment [10], 0.0497 E-score; in [11], -0.0365 E-score.
Take ATAGTCAA: the binding signal in [13] was -0.0769 E-score; in experiment [1], -0.00351 E-score; in experiment [2], -0.0525 E-score; in experiment [7] it was -0.0289 E-score; in experiment [8], -0.0501 E-score; in experiment [9] it was 0.12 E-score. The binding signal in [10] worked out at 0.148 E-score; in experiment [11], 0.473 E-score.
CTTGACCA: the binding signal in experiment [1] was -0.00901 E-score; in experiment [4] it was 0.00912 E-score; in experiment [5] it was -0.0659 E-score; in [7] it was -0.021 E-score; in experiment [8] it was 0.00384 E-score; in [9] it was -0.0975 E-score. For the same sequence, the binding signal in [10] is 0.0611 E-score; in experiment [11] it was 0.484 E-score.
Consider CACGGAAC, for which the binding signal in experiment [1] was -0.0637 E-score; in experiment [2] it was 0.48 E-score; in [4] it was 0.425 E-score; in experiment [5], 0.414 E-score; in experiment [7], 0.127 E-score; in experiment [8] it was 0.0702 E-score. Besides, the binding signal is 0.478 E-score in experiment [9], -0.129 E-score in experiment [10] and 0.0132 E-score in [11].
As for CAGGGAAA, the binding signal in experiment [13] was 0.141 E-score; in [1], 0.0693 E-score; in [3] it was 0.0449 E-score; in experiment [12], -0.0223 E-score; in experiment [5], 0.0485 E-score; in [6] it was -0.0228 E-score. The binding signal in [7] is 0.407 E-score; in experiment [8], 0.0967 E-score; in [9], -0.00497 E-score; in experiment [10], 0.0633 E-score; in experiment [11], -0.0612 E-score.
Turning to ATACGCCA, the binding signal in experiment [1] was 0.0499 E-score; in experiment [2] it was 0.0435 E-score; in [8], 0.398 E-score; in experiment [9], 0.247 E-score; in experiment [10], 0.176 E-score; in [11] it was -0.0912 E-score.
